Data taken from patent US20240301071A1.

Target: human SIRPA on human macrophages (primary monocyte-derived macrophages; U937 line) (human) (UniProt P78324)
Test: cell-based or functional assay

Chain of UniProt P78324 (P78324 31-504): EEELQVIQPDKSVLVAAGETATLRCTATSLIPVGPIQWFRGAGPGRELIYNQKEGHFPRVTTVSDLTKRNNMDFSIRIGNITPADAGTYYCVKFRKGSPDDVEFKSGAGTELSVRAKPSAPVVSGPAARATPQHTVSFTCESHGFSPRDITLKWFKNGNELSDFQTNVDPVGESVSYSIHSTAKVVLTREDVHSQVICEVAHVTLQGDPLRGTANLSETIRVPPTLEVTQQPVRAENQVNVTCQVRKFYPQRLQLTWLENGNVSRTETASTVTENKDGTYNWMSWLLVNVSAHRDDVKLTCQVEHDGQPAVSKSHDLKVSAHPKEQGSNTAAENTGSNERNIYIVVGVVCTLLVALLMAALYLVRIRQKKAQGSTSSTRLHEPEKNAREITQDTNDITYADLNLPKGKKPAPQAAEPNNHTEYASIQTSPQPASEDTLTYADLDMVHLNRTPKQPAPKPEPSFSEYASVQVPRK

- EC50 (nM), phagocytosis of A375 cells by primary human macrophages: 0.363 nM
- Max, fold increase in phagocytosis over baseline activity: 1.13 fold
- SIRPA IC50 (nM), downregulation on U937 cells: 15.5 nM
- SIRPA Max % DR, U937 cells: 9%
B1: anti-SIRPA antibody KWAR23 (antibody, from another filing)
light: QIVLTQSPAIMSASPGEKVTLTCSASSSVSSSYLYWYQQKPGSSPKLWIYSTSNLASGVPARFSGSGSGTSYSLTISSMEAEDAASYFCHQWSSYPRTFGAGTKLELKRTVAAPSVFIFPPSDEQLKSGTASVVCLLNNFYPREAKVQWKVDNALQSGNSQESVTEQDSKDSTYSLSSTLTLSKADYEKHKVYACEVTHQGLSSPVTKSFNRGEC
heavy: EVQLQQSGAELVKPGASVKLSCTASGFNIKDYYIHWVQQRTEQGLEWIGRIDPEDGETKYAPKFQDKATITADTSSNTAYLHLSSLTSEDTAVYYCARWGAYWGQGTLVTVSS[human IgG1 constant region left out]
